The supplement of paper PMC8728848
Some of the results follow.

Assays:
Experiment in all cases: glycan array binding signal (z-score within array); higher = stronger binding
Conditions in all cases: glycan notation: IUPAC condensed, linker removed
[1] = molecular target: Gal(b1-4)GlcNAc(b1-6)GalNAc
In short: (§1)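 From the Consortium for Functional Glycomics database, 3228 arrays were curated, keeping only those whose protein sequence was available. Binding is given as a within-array Z-score averaged across arrays sharing a protein sequence and across linkers. Negative Z-scores can be read as non-binding.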

[2] = molecular target: Gal(b1-4)GlcNAc(b1-6)[Gal(b1-3)]GalNAc
In short: as §1

[3] = molecular target: Gal(b1-4)GlcNAc(b1-6)[Gal(b1-4)GlcNAc(b1-3)]GalNAc
In short: as §1

Gal(b1-4)GlcNAc6P = molecular target: Gal(b1-4)GlcNAc6P
In short: as §1

Gal(b1-6)Gal = molecular target: Gal(b1-6)Gal
In short: as §1

Gal3S(b1-3)GalNAc = molecular target: Gal3S(b1-3)GalNAc
In short: as §1

Gal3S(b1-3)GlcNAc = molecular target: Gal3S(b1-3)GlcNAc
In short: as §1

[4] = molecular target: Gal3S(b1-3)[Fuc(a1-4)]GlcNAc
In short: as §1

Gal3S(b1-4)Glc = molecular target: Gal3S(b1-4)Glc
In short: as §1

Gal3S(b1-4)Glc6S = molecular target: Gal3S(b1-4)Glc6S
In short: as §1

Gal3S(b1-4)GlcNAc = molecular target: Gal3S(b1-4)GlcNAc
In short: as §1

[5] = molecular target: Gal3S(b1-4)[Fuc(a1-3)]Glc6S
In short: as §1

[6] = molecular target: Gal3S(b1-4)[Fuc(a1-3)]GlcNAc
In short: as §1

[7] = molecular target: Gal3S(b1-4)[Fuc(a1-3)]GlcNAc6S
In short: as §1

Gal3S4S(b1-4)GlcNAc = molecular target: Gal3S4S(b1-4)GlcNAc
In short: as §1

Gal3S6S(b1-4)GlcNAc = molecular target: Gal3S6S(b1-4)GlcNAc
In short: as §1

Gal3S6S(b1-4)GlcNAc6S = molecular target: Gal3S6S(b1-4)GlcNAc6S
In short: as §1

Gal4S(b1-4)GlcNAc = molecular target: Gal4S(b1-4)GlcNAc
In short: as §1

Gal4S6S(b1-4)GlcNAc = molecular target: Gal4S6S(b1-4)GlcNAc
In short: as §1

Gal6P(b1-4)GlcNAc = molecular target: Gal6P(b1-4)GlcNAc
In short: as §1

Gal6S(b1-3)GlcNAc = molecular target: Gal6S(b1-3)GlcNAc
In short: as §1

Gal6S(b1-3)GlcNAc6S = molecular target: Gal6S(b1-3)GlcNAc6S
In short: as §1

Gal6S(b1-4)Glc = molecular target: Gal6S(b1-4)Glc
In short: as §1

B1: OGAA (protein)
chain: MVQKESQATLEERESELSSNPAASAGASLEPPAAPAPGEDNPAGAGGAAVAGAAGGARRFLCGVVEGFYGRPWVMEQRKELFRRLQKWELNTYLYAPKDDYKHRMFWREMYSVEEAEQLMTLISAAREYEIEFIYAISPGLDITFSNPKEVSTLKRKLDQVSQFGCRSFALLFADIDHNMCAADKEVFSSFAHAQVSITNEIYQYLGEPETFLFCPTEYCGTFCYPNVSQSPYLRTVGEKLLPGIEVLWTGPKVVSKEIPVESIEEVSKIIKRAPVIWDNIHANDYDQKRLFLGPYKGRSTELIPRLKGVLTNPNCEFEANYVAIHTLATWYKSNMNGVRKDVVMTDSEDSTVSIQIKLENEGSDEDIETDVLYSPQMALKLALTEWLQEFGVPHQY
[1]
  glycan array binding signal (z-score): -0.007
[2]
  glycan array binding signal (z-score): -0.067
[3]
  glycan array binding signal (z-score): 0.016
Gal(b1-4)GlcNAc6P
  glycan array binding signal (z-score): -0.069
Gal(b1-6)Gal
  glycan array binding signal (z-score): -0.105
Gal3S(b1-3)GalNAc
  glycan array binding signal (z-score): -0.021
Gal3S(b1-3)GlcNAc
  glycan array binding signal (z-score): 0.007
[4]
  glycan array binding signal (z-score): 0.042
Gal3S(b1-4)Glc
  glycan array binding signal (z-score): -0.067
Gal3S(b1-4)Glc6S
  glycan array binding signal (z-score): -0.088
Gal3S(b1-4)GlcNAc
  glycan array binding signal (z-score): -0.094
[5]
  glycan array binding signal (z-score): -0.026
[6]
  glycan array binding signal (z-score): -0.033
[7]
  glycan array binding signal (z-score): -0.016
Gal3S4S(b1-4)GlcNAc
  glycan array binding signal (z-score): -0.054
Gal3S6S(b1-4)GlcNAc
  glycan array binding signal (z-score): -0.025
Gal3S6S(b1-4)GlcNAc6S
  glycan array binding signal (z-score): -0.045
Gal4S(b1-4)GlcNAc
  glycan array binding signal (z-score): -0.043
Gal4S6S(b1-4)GlcNAc
  glycan array binding signal (z-score): -0.054
Gal6P(b1-4)GlcNAc
  glycan array binding signal (z-score): -0.072
Gal6S(b1-3)GlcNAc
  glycan array binding signal (z-score): -0.043
Gal6S(b1-3)GlcNAc6S
  glycan array binding signal (z-score): -0.051
Gal6S(b1-4)Glc
  glycan array binding signal (z-score): 0.023
